Assay results published in the RNAGym collection of RNA variant scans (doi:10.1073/pnas.2313332121).
Variants at the floor of the assay are shown more often than the library holds them.

B1: TPR 5TU (parent)
chain: GGAUCUUCUCGAUCUAACAAAAAAGACAAAUCUGCCACAAAGCUUGAGAGCAUCUUCGGAUGCAGAGGCGGCAGCCUUCGGUGGCGCGAUAGCGCCAACGUUCUCAACUAUGACACGCAAAACGCGUGCUCCGUUGAAUGGAGUUUAUCAUG

Variants of: B1
Assay: polymerase ribozyme fitness, log enrichment relative to wild type (log ratio); higher = more active; in vitro selection for triplet polymerase activity
How it was run: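 A heterodimeric triplet polymerase ribozyme had each of its subunits mutagenized by PCR into a library, which was transcribed. One round of in vitro selection, done in triplicate, annealed each library with a biotinylated primer, its partner subunit and triplets, then incubated it frozen at −7 °C before gel excision of extended constructs, streptavidin-bead capture and RT-PCR. Fitness is the logarithm of genotype enrichment relative to wild-type enrichment, based on Illumina sequencing of inputs and outputs and inverse-variance-weighted replicate averages. A base-2 logarithm is used, and genotypes were kept only with ≥10 input reads and ≥1 read per output.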
With C35A C79A G83A C99A the “polymerase ribozyme fitness (log ratio)” value was at most -4.2. In the case of C35A U44A C63U G70A G80C C87G, the “polymerase ribozyme fitness (log ratio)” value is reported as at most -4.2. With C35U A107C G112U U134G U139C the “polymerase ribozyme fitness (log ratio)” value was at most -4.2. For C35A G58A G83U G92C G152A, the “polymerase ribozyme fitness (log ratio)” value was at most -4.2. For C35G G88A C95G C123A A138U, the “polymerase ribozyme fitness (log ratio)” value was at most -4.2. With C35A U77G G83A G117A C118U the “polymerase ribozyme fitness (log ratio)” value was at most -4.2. In the case of C35A U53A U61A G62C A64G A66C C87G G152U, the “polymerase ribozyme fitness (log ratio)” value is reported as at most -4.2. For C35A A39C A91U A121U, the “polymerase ribozyme fitness (log ratio)” value was at most -4.2. For G34U A66C G141U A147C, the “polymerase ribozyme fitness (log ratio)” value was at most -4.2. In the case of G34U U55A C85U C105G, the “polymerase ribozyme fitness (log ratio)” value is reported as at most -4.2. In the case of C35A G65U G83C C85A G124A, the “polymerase ribozyme fitness (log ratio)” value is reported as at most -4.2. In the case of C35A A66G G70U C87G C96G A121U C149U, the “polymerase ribozyme fitness (log ratio)” value is reported as at most -4.2. In the case of C35A U61A C96U, the “polymerase ribozyme fitness (log ratio)” value is reported as at most -4.2. In the case of C35U C85U, the “polymerase ribozyme fitness (log ratio)” value is reported as -0.375. For C35U C85A, the “polymerase ribozyme fitness (log ratio)” value was -1.42. For C35G C96U U102G C116U C125U U151G, the “polymerase ribozyme fitness (log ratio)” value was at most -4.2. For C35U A106U A142U, the “polymerase ribozyme fitness (log ratio)” value was -4.15. In the case of C35U A49G A97G A119C, the “polymerase ribozyme fitness (log ratio)” value is reported as -2.09. For C35A A41G U55A C76G U90C, the “polymerase ribozyme fitness (log ratio)” value was at most -4.2. In the case of C35A G81U A97U A98U, the “polymerase ribozyme fitness (log ratio)” value is reported as -3.76. In the case of C35A C85U G126C, the “polymerase ribozyme fitness (log ratio)” value is reported as at most -4.2. For C35A A52G C72G A73U C75U C79A C95G C103G, the “polymerase ribozyme fitness (log ratio)” value was at most -4.2. With G34U C76U A119U the “polymerase ribozyme fitness (log ratio)” value was -3.19. For G34U C79G A89G C93G A113U C132G, the “polymerase ribozyme fitness (log ratio)” value was at most -4.2. In the case of C35A A60C U102G A115C C125U U135A, the “polymerase ribozyme fitness (log ratio)” value is reported as at most -4.2. In the case of C35G G83C A91C C108U G136U, the “polymerase ribozyme fitness (log ratio)” value is reported as at most -4.2. With C35A C108A the “polymerase ribozyme fitness (log ratio)” value was at most -4.2. With G34U C63U C85A A89U G141A the “polymerase ribozyme fitness (log ratio)” value was at most -4.2. In the case of G34A G140A, the “polymerase ribozyme fitness (log ratio)” value is reported as -3.88. In the case of G34U G42A U53A U56A G100U C108G U135C U144A, the “polymerase ribozyme fitness (log ratio)” value is reported as at most -4.2. In the case of G34A U56A G74A C96G A98G C105G U139C, the “polymerase ribozyme fitness (log ratio)” value is reported as at most -4.2. With G34C U55A A91U G94U the “polymerase ribozyme fitness (log ratio)” value was at most -4.2. In the case of C35G U55G A73C A106U G126C U145C A150G, the “polymerase ribozyme fitness (log ratio)” value is reported as at most -4.2. In the case of C35A U56A C96U A122G, the “polymerase ribozyme fitness (log ratio)” value is reported as at most -4.2. With U33G G92A U104A C132U the “polymerase ribozyme fitness (log ratio)” value was at most -4.2. With G34A U55G C93U U109A A138C the “polymerase ribozyme fitness (log ratio)” value was at most -4.2. For C35U A47C C87U U101G A115U A120U, the “polymerase ribozyme fitness (log ratio)” value was at most -4.2. With G34U G83C U145G the “polymerase ribozyme fitness (log ratio)” value was at most -4.2. With C35G G50U G58A A66C C103A U104G A137U the “polymerase ribozyme fitness (log ratio)” value was at most -4.2. In the case of C35G C105U C129A A150C, the “polymerase ribozyme fitness (log ratio)” value is reported as -4.14. For U33G U53A C54G A66G C76G C93U A121U, the “polymerase ribozyme fitness (log ratio)” value was at most -4.2. In the case of C35U A97C A115C G117A G143C, the “polymerase ribozyme fitness (log ratio)” value is reported as at most -4.2. For U33G U53A, the “polymerase ribozyme fitness (log ratio)” value was -3.68. With G34A U111C A113C G124U G152U the “polymerase ribozyme fitness (log ratio)” value was at most -4.2. With U33G U55A C79G G80U C105A U151A the “polymerase ribozyme fitness (log ratio)” value was at most -4.2. With C35U A73G the “polymerase ribozyme fitness (log ratio)” value was -0.161. In the case of C35G G84A C96U A107G G140A, the “polymerase ribozyme fitness (log ratio)” value is reported as at most -4.2. In the case of G34C A66G G86U A107C G141U, the “polymerase ribozyme fitness (log ratio)” value is reported as at most -4.2. In the case of C35U C54U C72U G88U A89U U102A A119G G124C G141C, the “polymerase ribozyme fitness (log ratio)” value is reported as at most -4.2. With G34C A49C U55A U56A A121G the “polymerase ribozyme fitness (log ratio)” value was at most -4.2. With C35G C51G U56G G70A C76G C85G G133U the “polymerase ribozyme fitness (log ratio)” value was at most -4.2. For C35U C54G A66U C79A G80A G83C G84A C96U U101G U148C, the “polymerase ribozyme fitness (log ratio)” value was at most -4.2. In the case of G34U A37U U55A G136U, the “polymerase ribozyme fitness (log ratio)” value is reported as at most -4.2. In the case of C35A A91U A97U C99U, the “polymerase ribozyme fitness (log ratio)” value is reported as at most -4.2. For C35A G74A U144G C149G, the “polymerase ribozyme fitness (log ratio)” value was at most -4.2. With G34A A106U A142U the “polymerase ribozyme fitness (log ratio)” value was at most -4.2. In the case of G34A U56A G92C, the “polymerase ribozyme fitness (log ratio)” value is reported as -1.65. In the case of C35G G65C G84A, the “polymerase ribozyme fitness (log ratio)” value is reported as at most -4.2. With C35U C69A G94C U102A A110G the “polymerase ribozyme fitness (log ratio)” value was at most -4.2. In the case of G34U A41G A47C C116U, the “polymerase ribozyme fitness (log ratio)” value is reported as at most -4.2. In the case of C35A G81C G140C U145G, the “polymerase ribozyme fitness (log ratio)” value is reported as at most -4.2. For C35G U78G C99A, the “polymerase ribozyme fitness (log ratio)” value was at most -4.2. In the case of U33G U55A C93U A107U G112A C131U, the “polymerase ribozyme fitness (log ratio)” value is reported as at most -4.2. In the case of C35A G59A G94C A115G, the “polymerase ribozyme fitness (log ratio)” value is reported as at most -4.2. With G34A C38A A52C C69A G86U A98G A119U G128A G143C U151C the “polymerase ribozyme fitness (log ratio)” value was at most -4.2. With U33G U53A G84U G92A G140U the “polymerase ribozyme fitness (log ratio)” value was at most -4.2. With C35G G42A G86U U90G G100A A121G G128A the “polymerase ribozyme fitness (log ratio)” value was at most -4.2. In the case of C35U C43A C95G U101C, the “polymerase ribozyme fitness (log ratio)” value is reported as at most -4.2. In the case of C35G G86A A120C C125U G143C, the “polymerase ribozyme fitness (log ratio)” value is reported as at most -4.2. For G34A A49C G68C C96A C116U, the “polymerase ribozyme fitness (log ratio)” value was at most -4.2. With C35U C51G G59A C85U G128U G141A the “polymerase ribozyme fitness (log ratio)” value was at most -4.2. With C35U C51U A73U C105U the “polymerase ribozyme fitness (log ratio)” value was at most -4.2. With G34U G58U G74U G81A U102A U104C the “polymerase ribozyme fitness (log ratio)” value was at most -4.2. For C35G A39C U82C C116U C125G G133A, the “polymerase ribozyme fitness (log ratio)” value was at most -4.2. In the case of C35G U44A C99A A106G A142U, the “polymerase ribozyme fitness (log ratio)” value is reported as at most -4.2. With C35U C85G G88U U134A the “polymerase ribozyme fitness (log ratio)” value was at most -4.2. With C35G U90C A97G A137C G141A the “polymerase ribozyme fitness (log ratio)” value was at most -4.2. With C35A G58U the “polymerase ribozyme fitness (log ratio)” value was -2.81. For C35U C72U C95U C105A C125A U134G U148C, the “polymerase ribozyme fitness (log ratio)” value was at most -4.2. With U33G U55C C76U G86U C105A C116U the “polymerase ribozyme fitness (log ratio)” value was at most -4.2. In the case of C35A G58C C75G, the “polymerase ribozyme fitness (log ratio)” value is reported as at most -4.2. For C35A C76G C96A A113G A120G A150G, the “polymerase ribozyme fitness (log ratio)” value was at most -4.2. With C35A U61A G84A C96U U102G C105U the “polymerase ribozyme fitness (log ratio)” value was at most -4.2. For C35G U55G U61A C79G C93G A107G, the “polymerase ribozyme fitness (log ratio)” value was at most -4.2.
